Each structure is given as a SMILES string. Among all 110,000 compounds or so, about 230 (0.21%) showed an effect of 50% or more. The list shows a part of the results. Where a SMILES comes first, the peptide text is derived from it. The star is where a group is joined. Tos = Cc1ccc(S(=O)(=O)*)cc1
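Further: 30 min substrate incubation versus DMSO and 10 µM JCP410 controls.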

This assay deals with DPAP1 (Plasmodium falciparum, UniProt Q8IIJ9). Description: primary screen, percent inhibition; read by cleavage of a fluorogenic dipeptide substrate; higher = more effect of the substance. More on the design: species or system P. falciparum D10 trophozoite lysates; single well.
DPAP1, sequence (Q8IIJ9 whole entry, looked up): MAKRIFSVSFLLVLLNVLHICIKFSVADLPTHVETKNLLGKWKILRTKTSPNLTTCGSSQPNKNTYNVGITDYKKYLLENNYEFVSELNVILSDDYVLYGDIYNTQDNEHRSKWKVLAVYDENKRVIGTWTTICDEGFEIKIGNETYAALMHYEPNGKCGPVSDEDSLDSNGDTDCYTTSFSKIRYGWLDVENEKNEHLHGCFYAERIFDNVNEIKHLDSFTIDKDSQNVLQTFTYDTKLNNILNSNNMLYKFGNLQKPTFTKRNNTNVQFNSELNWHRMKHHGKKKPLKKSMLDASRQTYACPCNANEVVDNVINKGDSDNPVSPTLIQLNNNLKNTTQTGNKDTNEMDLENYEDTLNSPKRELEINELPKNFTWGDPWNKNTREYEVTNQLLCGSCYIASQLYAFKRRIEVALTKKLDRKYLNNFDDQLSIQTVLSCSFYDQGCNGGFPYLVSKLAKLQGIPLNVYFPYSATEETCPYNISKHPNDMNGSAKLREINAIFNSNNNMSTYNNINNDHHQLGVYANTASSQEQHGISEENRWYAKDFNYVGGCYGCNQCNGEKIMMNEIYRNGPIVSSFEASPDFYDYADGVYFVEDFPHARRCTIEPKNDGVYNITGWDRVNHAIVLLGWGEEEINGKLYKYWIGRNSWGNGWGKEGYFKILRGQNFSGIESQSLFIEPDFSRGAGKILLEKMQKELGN
Turning to `O=C1CSC(c2cccc(Cl)c2Cl)N1C1CCCCC1` (stereo not drawn), the “% Inhibition @ 10 uM” value is reported as 1.67%.
`CSc1nc2sc3c(c2c(=O)n1C)CC(C)(C)OC3`: the “% Inhibition @ 10 uM” value is 1.8%.
Turning to `COc1cccc2c1OC(C)(C)N1N=C(c3ccco3)CC21` (stereo not drawn), the “% Inhibition @ 10 uM” value came out at 9.35%.
Consider `O=C(OCCN1CCCCC1)c1ccc(O)cc1`, for which the “% Inhibition @ 10 uM” value came out at 2.65%.
The result for `CC(C)OCCCNC(=O)C1c2ccccc2C(=O)N(C)C1c1c[nH]c2ccccc12` (stereo not drawn) reads 4.07%; that for `Oc1nc(/C=C/c2c(O)ccc3ccccc23)cc(C(F)(F)F)n1`, 15.3%.
As to `O=S(=O)(c1ccc(F)cc1)N1CCCC1`, the “% Inhibition @ 10 uM” value is -2.6%.
The result for `CCOC(=O)c1c(C)oc(C)c1CNC(N)=O` reads 0.895%; that for `CNS(=O)(=O)c1cn(CC(=O)N2CCN(C3CCCCC3)CC2)cc1S(=O)(=O)NC`, -7.67%.
The result for `COc1ccc(C2CC(=O)N3C(=C2C#N)SCC3(O)c2ccc(C)cc2)cc1Cn1cccn1` (stereo not drawn) reads 3.24%; that for `COc1cc(C)cc2oc(=O)c(CC(=O)NCc3ccc(C)cc3)c(C)c12`, -0.808%.
The result for `CCOC(=O)N1CCN(C(=O)Cc2cn(C)c3ccccc23)CC1` reads 85.9%; that for `CCc1ccc(OCC(=O)N(Cc2ccc(OC)cc2)C2CCS(=O)(=O)C2)cc1` (stereo not drawn), -2.98%; that for `CCOC(=O)N1CCN(C(=O)C2CCN(Cc3nc(-c4ccccc4C)oc3C)CC2)CC1`, -6.64%.
As to `Oc1ccc(Cl)cc1CN1CCCCCCC1`, the “% Inhibition @ 10 uM” value is -3.85%.
In the case of `CCCc1[nH]nc2c1C(c1cc(OC)ccc1OC)C(C#N)=C(N)O2` (stereo not drawn), the “% Inhibition @ 10 uM” value is 0.746%.
Take `CC(C)CCNC(=O)C1CCN(C(=O)N(C)C)CC1`: the “% Inhibition @ 10 uM” value was found to be 2.05%.
The result for `CCOC(=O)c1c(NC(=O)CN2CCCCCC2)sc2c1CCN(C(=O)OCC)C2` reads 9.47%; that for `Cn1cc(S(=O)(=O)N2CCOCC2)cc1C(=O)Nc1cccnc1`, -0.398%; that for `CC1CCN(c2cnnc3c(Cl)cccc23)CC1`, 2.42%.
The result for `N#CC1=C(N)Oc2[nH]nc(-c3ccc4c(c3)OCO4)c2C1c1ccc(C(F)(F)F)cc1` (stereo not drawn) reads 5.55%; that for `C=CCSC1=C(C#N)C(c2ccc(OCC)cc2)CC(=O)N1` (stereo not drawn), -0.769%.
The result for `O=C(NCc1ccccc1Cl)c1cc(=O)nc2sc(-c3cccs3)nn12` reads -3.94%; that for `O=[N+]([O-])c1ccc(Nc2ccc(O)cc2)c2nonc12`, 4.08%; that for `COc1ccc(-n2c(S)nnc2-c2cc(C(C)(C)C)[nH]n2)cc1`, -2.91%.
As to `COc1ccc(C(=O)O/N=C(\N)CC(N)=O)cc1`, the “% Inhibition @ 10 uM” value turned out to be 6.07%.
The same measure for `N#CCNC(=O)[C@H](Cc1ccsc1)NC(=O)OCc1ccccc1`: -5.21%; for `CSc1nn2c(=O)cc(CSc3nnc(N)s3)nc2s1`: 2.74%.
The result for `O=C(O)CCC(=O)N1N=C(c2ccc(Br)cc2)CC1c1ccccc1F` (stereo not drawn) reads 7.97%; that for `Cc1[nH]c2ccc(C(=O)NCCN3CCCCCC3)cc2c1C`, 7.43%.
The same measure for `CCOC(=O)c1cc2c(=O)n3ccccc3nc2n(Cc2ccco2)/c1=N/C(=O)c1ccccc1F`: 5.85%.
Consider `COCCN1C(=O)c2oc3ccccc3c(=O)c2C1c1ccc(O)c(OC)c1` (stereo not drawn), for which the “% Inhibition @ 10 uM” value is 0.628%.
The same measure for `Cc1ccc(S(=O)(=O)NC(Cc2ccccc2)C(=O)NC(CCCN=C(N)N)C(=O)O)cc1` (stereo not drawn) (Tos-Phe-Arg-OH; configuration not given here): 2.03%; for `O=S(=O)(c1cc(Cl)ccc1Cl)N1CCN(c2ccccc2)CC1`: 2.46%.
The same measure for `O=[N+]([O-])c1ccc(-c2cnc(-c3ccc(Br)cc3)nc2)cc1`: -0.351%.
With `CCCCC(=O)Nc1cc(Cl)c(Cl)cc1NCC`, the “% Inhibition @ 10 uM” value is listed as -5.9%.
The same measure for `Cc1ccc(CNC(=O)CCNS(=O)(=O)c2ccc3nc(O)ccc3c2)cc1`: 1.39%; for `c1ccc2c(c1)ncc1cccn12`: -0.0953%.
The same measure for `O=C(NCCN1CCCCC1)Nc1cccc2ccccc12`: -0.292%.
The result for `CCc1cc(-c2[nH]nc(C)c2-c2nc3ccccc3s2)c(O)cc1O` reads -4.58%.
On to `CCN1CCN(C(c2cccs2)C(C)NC(=O)c2cc(OC)c(OC)c(OC)c2)CC1` (stereo not drawn), for which the “% Inhibition @ 10 uM” value came to 3.96%.
The result for `Cc1ccc(-c2c(C#N)c(N)nc3c2CC(C)CC3)o1` (stereo not drawn) reads 3.72%; that for `COc1ccc(-c2onc(C)c2C)cc1S(=O)(=O)N1CCN(C)CC1`, -2.25%.
Turning to `CCOc1ccc(Sc2cc(C(=O)NC(C)C)c3ccccc3n2)cc1`, the “% Inhibition @ 10 uM” value is given as -3.58%.
The result for `O=C(NCCCN1CCCC1=O)C1CCC(CNS(=O)(=O)c2ccc(Cl)cc2)CC1` (stereo not drawn) reads 3.93%; that for `Cc1cc(C(=O)NC2CC2)c2ccccc2n1`, -0.519%.
The result for `O=c1c2ccccc2cnn1CCOc1ccccc1` reads -1.82%; that for `O=C(O)CCC(=O)Nc1ccc(Oc2ccc(Cl)cc2)cc1`, -3.19%; that for `CCOC(=O)c1cnc2c(C(=O)OC)cnn2c1O`, 1.02%.
The same measure for `CC(=O)N(CN1C(=O)c2ccccc2C1=O)c1ccc(C)c(Cl)c1`: -4.86%; for `COc1ccc2c(CNCCCc3ccccc3)c(C(=O)O)n(Cc3ccc(F)cc3)c2c1`: 0.16%.
Take `CCOC(=O)c1ccc(CSc2nncn2N)o1`: the “% Inhibition @ 10 uM” value is given as -1.26%.
The result for `CCCN(CCC)S(=O)(=O)c1ccc(N2CCCC2=O)c(NC(=O)OC(C)C)c1` reads -2.72%.
Regarding `CCOc1cc(C2c3c(oc4ccc(C)cc4c3=O)C(=O)N2Cc2ccc3c(c2)OCO3)ccc1O` (stereo not drawn), the “% Inhibition @ 10 uM” value is -5%.
The same measure for `CSc1ccc(CCNC(=O)C2CCN(c3nn4cc(-c5ccc(C)cc5)nc4s3)CC2)cc1`: -0.878%; for `Cc1ccccc1CN1CCN(CC(=O)NCc2cccs2)C1=O`: 2.02%.
On to `c1ccc2c(Nn3cnnc3)c3ccccc3nc2c1`, for which the “% Inhibition @ 10 uM” value was determined as 4.61%.
The result for `CCC(=O)NC1=C(C#N)C2(CCCCC2)Cc2ccccc21` reads -4.64%; that for `CN(c1ccccc1)S(=O)(=O)c1ccc(Cl)c(C(=O)Nc2cccc(C(=O)O)c2)c1`, -6.83%.
As to `C=CCOc1ccc(/C=c2\sc3nc(-c4ccc(C)cc4)nn3c2=O)cc1`, the “% Inhibition @ 10 uM” value was determined as 2.17%.
Take `CC(C)(C)CC(=O)Nc1ccccc1C(N)=O`: the “% Inhibition @ 10 uM” value is -5.31%.
The result for `Brc1ccc(-c2nc(N3CCNCC3)c3ccccc3n2)cc1` reads -0.63%; that for `CC(=O)c1[nH]c(C)c(C(=O)NC2CCCCCCC2)c1C`, 5.53%.
For the compound `Cn1c(=O)c2c(ncn2CC(=O)Nc2ccc(F)cc2F)n(C)c1=O`, the “% Inhibition @ 10 uM” value turned out to be 2.13%.
For `CC(C)CCNC(=O)C(C)n1c2ccccc2c2cnn(C)c(=O)c21` (stereo not drawn), the “% Inhibition @ 10 uM” value is given as -2%.
The result for `Cc1c(Cl)c(C(F)(F)F)nn1CC(=O)N1CCN([C@]23C[C@H]4C[C@H](C[C@H](C4)C2)C3)CC1` reads -1.37%.
For the compound `C=C(C)[C@@H]1CC=C(CN2CCN(CC)CC2)CC1`, the “% Inhibition @ 10 uM” value is given as -1.78%.
The result for `COC(=O)C1=CN(CCc2ccc(F)cc2)C=C(C(=O)OC)C1c1cccs1` reads 1.81%; that for `CCN(CC)C(=O)C(C)OC(=O)c1ccc(O)cc1` (stereo not drawn), 2.38%; that for `O=C(Nc1ccc(S(=O)(=O)Nc2nccs2)cc1)c1ccccc1Cl`, -1.61%.
The same measure for `CC(=O)NS(=O)(=O)c1ccc(NC(=O)c2cc(-c3ccc(C)c(C)c3)nc3ccccc23)cc1`: 9.95%; for `O=C(NC1CCCCC1)C1CCC(CNc2c(N3CCCC3)c(=O)c2=O)CC1` (stereo not drawn): -2.17%.
The result for `CCCCCO/C(O)=C1\C(C)=NC2=C(C(=O)CC(C)(C)C2)C1c1ccc(Cl)c(Cl)c1` (stereo not drawn) reads 1.38%.
Regarding `O=C1c2ccc(Br)cc2C(=O)N1c1ccc(Cl)c(Cl)c1`, the “% Inhibition @ 10 uM” value was -3.13%.
The result for `CN(C1CCCCC1)S(=O)(=O)N1CCCC(C(=O)NC2CCN(Cc3ccccc3)CC2)C1` (stereo not drawn) reads -7.21%; that for `O=C(c1ccc(C#Cc2ccccc2)o1)N1CCN(c2ccccn2)CC1`, -5.69%.
The result for `O=C(c1ccc(C#CC2(O)CCCCC2)cc1)N1CCN(c2ccccc2F)CC1` reads -4.93%; that for `c1cncc(Cc2nnc(N3CCC4(CC3)OCCO4)c3ccccc23)c1`, -8.42%; that for `COc1ccc(C(=O)NCc2nnc(SCC(=O)N3CCCCC3)o2)cc1OC`, -3.39%.
The same measure for `C=CCNC(=O)C1CC(c2cc(OC)ccc2OC)=NO1` (stereo not drawn): 2.85%.
Consider `Cc1cccc(C(=O)Nc2cccc(-c3nc4cc(Cl)ccc4o3)c2)c1`, for which the “% Inhibition @ 10 uM” value is reported as -2%.
The result for `COc1cccc(C(=O)N2Cc3ccccc3-c3ccccc3C2=O)c1` reads 9.72%; that for `O=C(C[n+]1ccccc1-c1ccccn1)c1ccc(Cl)cc1`, 3.31%; that for `O=c1cccc2n1C[C@H]1C[C@@H]2CN(Cc2cc(F)ccc2F)C1`, 4.98%.
The same measure for `Cc1ccc(/C=C2\CS/C(=C\c3ccc(C)o3)C2=O)o1`: 2.93%; for `Cc1cccc(NC(=O)CCCC(=O)Nc2cccc(C)c2C)c1C`: 0.687%; for `Cc1cccc(-c2noc(CNC(=O)c3ccccc3F)n2)c1`: -1.22%.
The same measure for `Cc1ccc(OCC(=O)N(Cc2ccccc2)c2ccccn2)cc1`: -4.95%.
Regarding `CCCS(=O)(=O)N1CCC(C(=O)N2CCOCC2)CC1`, the “% Inhibition @ 10 uM” value was 3.24%.
Take `CSc1nc(O)nnc1SCc1ccccc1`: the “% Inhibition @ 10 uM” value is 4.15%.
The same measure for `Cc1onc(-c2ccccc2)c1C(=O)Nc1nnc(N(C)Cc2ccccc2)s1`: -3.47%.
Regarding `Cc1ccc(C)c(N2CCN(C3CC4CCC3C4)CC2)c1` (stereo not drawn), the “% Inhibition @ 10 uM” value was determined as 4.75%.
Take `Cc1ccccc1Cn1c(C)c(CNC2CCCCC2)c(C(=O)O)c1C`: the “% Inhibition @ 10 uM” value was -9.31%.
The same measure for `COc1ccc(C(=O)NC2CCCCC2)cc1Br`: -2.19%; for `CCc1nn(CC(=O)N(C)C2CCCCC2)c(=O)c2cc3cc(C)ccc3n12`: 7.53%.
`Nc1ccc2nc(SCC(=O)NCc3ccco3)sc2c1`: the “% Inhibition @ 10 uM” value is 2.85%.
In the case of `CS(=O)(=O)N1CCC(C(=O)Nc2ccc(F)cc2)CC1`, the “% Inhibition @ 10 uM” value is on record as 1.71%.
The result for `CC/N=c1/scc(-c2ccc(OCC)cc2)n1CC` reads 2.73%; that for `O=C(CSc1nc2ccccc2[nH]1)c1ccc(Cl)c(Cl)c1`, -5.5%.

Source of the values: paper PMC6919601, “Identification of Plasmodium dipeptidyl aminopeptidase allosteric inhibitors by high throughput screening” (PLoS ONE, 2019).
